# According to the supplement of paper PMC8728848:
# The list shows a part of the results.
# B1: Langerin CRD (Homo sapiens), Q9UJ71 (protein)
# chain: QVVSQGWKYFKGNFYYFSLIPKTWYSAEQFCVSRNSHLTSVTSESEQEFLYKTAGGLIYWIGLTKAGMEGDWSWVDDTPFNKVQSVRFWIPGEPNNAGNNEHCGNIKAPSLQAWNDAPCDKTFLFICKRPYVPSEPSAWSHPQFEK
# What was measured:
# Experiment in all cases: glycan array binding signal (z-score within array); higher = stronger binding
# Conditions in all cases: glycan notation: IUPAC condensed, linker removed
# [1] = target: GlcNAc(b1-6)Gal(b1-4)GlcNAc
# Procedure, shortened: (§1)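 The Consortium for Functional Glycomics database supplied 3228 glycan arrays, of which those lacking an available protein sequence were dropped. The binding signal, a within-array Z-score, was averaged across arrays of the same protein sequence and across linkers. Negative scores can be read as non-binding.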
# [2] = target: GlcNAc(b1-6)GalNAc
# Procedure, shortened: as §1
# [3] = target: GlcNAc3Prop(b1-4)GlcNAc
# Procedure, shortened: as §1
# [4] = target: Kdn(a2-3)Gal(b1-3)GlcNAc
# Procedure, shortened: as §1
# [5] = target: Kdn(a2-3)Gal(b1-4)GlcNAc
# Procedure, shortened: as §1
# [6] = target: Man(a1-2)Man(a1-2)Man(a1-3)Man
# Procedure, shortened: as §1
# [7] = target: Man(a1-2)Man(a1-2)Man(a1-6)[Man(a1-3)]Man
# Procedure, shortened: as §1
# [8] = target: Man(a1-2)Man(a1-3)Man
# Procedure, shortened: as §1
# [9] = target: Man(a1-2)Man(a1-3)[Man(a1-2)Man(a1-6)]Man
# Procedure, shortened: as §1
# [10] = target: Man(a1-2)Man(a1-3)[Man(a1-2)Man(a1-6)]Man(a1-6)[Man(a1-2)Man(a1-2)Man(a1-3)]Man
# Procedure, shortened: as §1
# [11] = target: Man(a1-2)Man(a1-3)[Man(a1-2)Man(a1-6)]Man(a1-6)[Man(a1-2)Man(a1-2)Man(a1-3)]Man(b1-4)GlcNAc(b1-4)GlcNAc
# Procedure, shortened: as §1
# [12] = target: Man(a1-2)Man(a1-3)[Man(a1-6)]Man(a1-6)[Man(a1-2)Man(a1-3)]Man(b1-4)GlcNAc(b1-4)GlcNAc
# Procedure, shortened: as §1
# [13] = target: Man(a1-2)Man(a1-6)[Man(a1-3)]Man(a1-6)[Man(a1-2)Man(a1-2)Man(a1-3)]Man
# Procedure, shortened: as §1
# [14] = target: Man(a1-2)Man(a1-6)[Man(a1-3)]Man(a1-6)[Man(a1-2)Man(a1-2)Man(a1-3)]Man(b1-4)GlcNAc(b1-4)GlcNAc
# Procedure, shortened: as §1
# [15] = target: Man(a1-3)[Man(a1-6)]Man
# Procedure, shortened: as §1
# [16] = target: Man(a1-3)[Man(a1-6)]Man(a1-6)[Man(a1-2)Man(a1-3)]Man(b1-4)GlcNAc(b1-4)GlcNAc
# Procedure, shortened: as §1
# [17] = target: Man(a1-3)[Man(a1-6)]Man(a1-6)[Man(a1-3)]Man
# Procedure, shortened: as §1
# [18] = target: Man(a1-3)[Man(a1-6)]Man(a1-6)[Man(a1-3)]Man(b1-4)GlcNAc(b1-4)GlcNAc
# Procedure, shortened: as §1
# [19] = target: Man(a1-3)[Man(a1-6)]Man(b1-4)GlcNAc(b1-4)GlcNAc
# Procedure, shortened: as §1
# [20] = target: Man(a1-6)Man
# Procedure, shortened: as §1
# [21] = target: Man(b1-4)GlcNAc
# Procedure, shortened: as §1
# [22] = target: Neu5Ac(a2-3)Gal
# Procedure, shortened: as §1
# [23] = target: Neu5Ac(a2-3)Gal(b1-3)GalNAc
# Procedure, shortened: as §1
# [24] = target: Neu5Ac(a2-3)Gal(b1-3)GalNAc(b1-3)Gal(a1-4)Gal(b1-4)Glc
# Procedure, shortened: as §1
# [25] = target: Neu5Ac(a2-3)Gal(b1-3)GalNAc(b1-3)Gal(b1-4)GlcNAc
# Procedure, shortened: as §1
# [26] = target: Neu5Ac(a2-3)Gal(b1-3)GalNAc(b1-4)[Neu5Ac(a2-3)]Gal(b1-4)Glc
# Procedure, shortened: as §1
# [27] = target: Neu5Ac(a2-3)Gal(b1-3)GalNAc6S
# Procedure, shortened: as §1
# [28] = target: Neu5Ac(a2-3)Gal(b1-3)GlcNAc
# Procedure, shortened: as §1
# [29] = target: Neu5Ac(a2-3)Gal(b1-3)GlcNAc(b1-3)Gal(b1-3)GlcNAc
# Procedure, shortened: as §1
# [30] = target: Neu5Ac(a2-3)Gal(b1-3)GlcNAc6S
# Procedure, shortened: as §1
# [31] = target: Neu5Ac(a2-3)Gal(b1-3)[Fuc(a1-4)]GlcNAc
# Procedure, shortened: as §1
# [32] = target: Neu5Ac(a2-3)Gal(b1-3)[Fuc(a1-4)]GlcNAc(b1-3)Gal(b1-4)[Fuc(a1-3)]GlcNAc
# Procedure, shortened: as §1
# [33] = target: Neu5Ac(a2-3)Gal(b1-3)[Neu5Ac(a2-3)Gal(b1-4)]GlcNAc
# Procedure, shortened: as §1
# [34] = target: Neu5Ac(a2-3)Gal(b1-3)[Neu5Ac(a2-6)]GalNAc
# Procedure, shortened: as §1
# [35] = target: Neu5Ac(a2-3)Gal(b1-4)Glc
# Procedure, shortened: as §1
# [36] = target: Neu5Ac(a2-3)Gal(b1-4)GlcNAc
# Procedure, shortened: as §1
# [37] = target: Neu5Ac(a2-3)Gal(b1-4)GlcNAc(b1-2)Man(a1-3)[GlcNAc(b1-2)Man(b1-4)GlcNAc(b1-2)Man(a1-6)]Man(b1-4)GlcNAc(b1-4)GlcNAc
# Procedure, shortened: as §1
# [38] = target: Neu5Ac(a2-3)Gal(b1-4)GlcNAc(b1-2)Man(a1-3)[Neu5Ac(a2-6)Gal(b1-4)GlcNAc(b1-2)Man(a1-6)]Man(b1-4)GlcNAc(b1-4)GlcNAc
# Procedure, shortened: as §1
# [39] = target: Neu5Ac(a2-3)Gal(b1-4)GlcNAc(b1-3)Gal(b1-3)GlcNAc
# Procedure, shortened: as §1
# [40] = target: Neu5Ac(a2-3)Gal(b1-4)GlcNAc(b1-3)Gal(b1-4)GlcNAc
# Procedure, shortened: as §1
# [41] = target: Neu5Ac(a2-3)Gal(b1-4)GlcNAc(b1-3)Gal(b1-4)GlcNAc(b1-3)Gal(b1-4)GlcNAc
# Procedure, shortened: as §1
# [42] = target: Neu5Ac(a2-3)Gal(b1-4)GlcNAc(b1-3)Gal(b1-4)[Fuc(a1-3)]GlcNAc
# Procedure, shortened: as §1
# [43] = target: Neu5Ac(a2-3)Gal(b1-4)GlcNAc(b1-6)[Gal(b1-3)]GalNAc
# Procedure, shortened: as §1
# [44] = target: Neu5Ac(a2-3)Gal(b1-4)GlcNAc(b1-6)[Neu5Ac(a2-3)Gal(b1-3)]GalNAc
# Procedure, shortened: as §1
# [45] = target: Neu5Ac(a2-3)Gal(b1-4)GlcNAc6S
# Procedure, shortened: as §1
binder,measurement,setting,value
B1,glycan array binding signal (z-score),[1],0.659
same,glycan array binding signal (z-score),[2],1.27
same,glycan array binding signal (z-score),[3],-0.251
same,glycan array binding signal (z-score),[4],-0.515
same,glycan array binding signal (z-score),[5],-0.631
same,glycan array binding signal (z-score),[6],4.1
same,glycan array binding signal (z-score),[7],0.973
same,glycan array binding signal (z-score),[8],1.45
same,glycan array binding signal (z-score),[9],1.05
same,glycan array binding signal (z-score),[10],2.41
same,glycan array binding signal (z-score),[11],-0.352
same,glycan array binding signal (z-score),[12],0.646
same,glycan array binding signal (z-score),[13],1.86
same,glycan array binding signal (z-score),[14],0.337
same,glycan array binding signal (z-score),[15],1.31
same,glycan array binding signal (z-score),[16],0.569
same,glycan array binding signal (z-score),[17],1.07
same,glycan array binding signal (z-score),[18],-0.241
same,glycan array binding signal (z-score),[19],0.392
same,glycan array binding signal (z-score),[20],1.03
same,glycan array binding signal (z-score),[21],0.232
same,glycan array binding signal (z-score),[22],-0.625
same,glycan array binding signal (z-score),[23],-0.547
same,glycan array binding signal (z-score),[24],-0.588
same,glycan array binding signal (z-score),[25],-0.611
same,glycan array binding signal (z-score),[26],-0.648
same,glycan array binding signal (z-score),[27],-0.654
same,glycan array binding signal (z-score),[28],-0.432
same,glycan array binding signal (z-score),[29],-0.48
same,glycan array binding signal (z-score),[30],-0.591
same,glycan array binding signal (z-score),[31],0.059
same,glycan array binding signal (z-score),[32],-0.399
same,glycan array binding signal (z-score),[33],-0.595
same,glycan array binding signal (z-score),[34],-0.633
same,glycan array binding signal (z-score),[35],-0.401
same,glycan array binding signal (z-score),[36],-0.606
same,glycan array binding signal (z-score),[37],-0.558
same,glycan array binding signal (z-score),[38],-0.647
same,glycan array binding signal (z-score),[39],-0.628
same,glycan array binding signal (z-score),[40],-0.418
same,glycan array binding signal (z-score),[41],-0.654
same,glycan array binding signal (z-score),[42],-0.68
same,glycan array binding signal (z-score),[43],-0.693
same,glycan array binding signal (z-score),[44],-0.598
same,glycan array binding signal (z-score),[45],-0.429
